From PubChem BioAssay AID662 (National Center for Advancing Translational Sciences (NCATS), 2007)
The campaign covered roughly 71,000 compounds. About 1,800 (2.5%) were called active. This list was built around the results that the source calls inconclusive (neither active nor inactive); the mix of calls is not that of the screen. The call rests on the fitted dose curve; in most records, active means well fitted activation curve with a large enough effect in the signal ratio, with a control signal flat (not every such curve was filed as active); inconclusive means small, poorly fitted or top-dose-only effect, or effect the other way, or a change in a side signal; inactive means flat fitted curve, though single readings scatter; the % refers to the signal ratio. Where the call is inconclusive, the potency comes from a doubtful curve fit.

Assay: Cell signaling CRE-BLA (Fsk stim); on activity change, negative = inhibition: % of control where 0% means no effect
Conditions: CHO CRE-bla reporter (cAMP response element driving beta-lactamase), forskolin EC10, beta-lactamase ratio; activity change, negative = inhibition: at 38.2 µM (top of the series) unless noted
How it was run: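 CRE-bla CHO cells stimulated with EC10 NKH 477 (water-soluble forskolin) and compound titrations, 3 h at 37C; beta-lactamase read with CCF4 after 2 h at room temperature. Activity from 460/530 nm emission ratio, AC50 values for positive or negative modulation.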
Potency means the concentration at half of the fitted maximal effect; tags describe the fitted curve by direction and shape.

Row | Structure (SMILES) | activity change, negative = inhibition | Potency
1 | CN(C=O)CP(=O)(O)CCN1CCCC1=O | inactive | –
2 | O=C(NCC(c1cccnc1)N1CCN(c2ccc(F)cc2)CC1)OCc1ccccc1 (configuration not stated) | inconclusive: 0.464% | –
3 | COc1ccc(S(=O)(=O)N(CCN2CCOCC2)Cc2cc(OC)ccc2OC)cc1 | inconclusive: 15.2% | –
4 | COc1cccc(OCCOc2cccc(/C=N/n3cnnc3)c2)c1 | – | inconclusive: 12.6 µM [rising, single point]
5 | COC(=O)c1nc2n(n1)C(c1cc(OC)ccc1OC)C(C(=O)OC1CCCCC1)=C(C)N2 (configuration not stated) | – | inconclusive: 12.6 µM [rising, partial curve]
6 | CCOC(=O)c1c(NC(=O)c2noc3c2CCCC3)sc(C)c1C | – | inconclusive: 25.1 µM [rising, single point]
7 | Cc1ccc(Cn2ccc(NC(=O)c3cc(-c4ccco4)on3)n2)cc1 | inconclusive: 1.44% | –
8 | CCCC[S@@](=N)(=O)CC[C@@H](N)C(=O)O | inactive | –
9 | c1ccc2n[nH]nc2c1 | inactive | –
10 | CCC(c1nnc(SCC(=O)Nc2nnc(-c3ccccc3)o2)o1)N(C)C (configuration not stated) | inconclusive: -8.54% | –
11 | CCOC(=O)C1CCCN(C(=O)C2c3ccccc3Oc3ccccc32)C1 (configuration not stated) | inconclusive: -22.9% [at 7.6 µM] | –
12 | CCOc1ccc(CCNC(=O)Cn2c(-c3nonc3N)nc3ccccc32)cc1OCC | inconclusive: 28.3% | –
13 | COc1ccccc1NC(=O)c1nnn(CC(=O)Nc2ccccc2)c1N | inconclusive: -13.8% | –
14 | N#CCCn1c(=O)c(-c2ccccc2)nc2cnc(N3CCOCC3)nc21 | – | active: 3.98 µM
15 | O=C(OCc1nc2ccccc2s1)C1CCN(S(=O)(=O)c2cccs2)CC1 | – | inconclusive: 5.01 µM [falling, single point]
16 | Nc1c(C(=O)c2ccc(Br)s2)oc2ccccc12 | inconclusive: 12.7% | –
17 | O=C(c1ccco1)N1CCN(C(=O)C2CCCO2)CC1 (configuration not stated) | inconclusive: 22.7% | –
18 | Cn1c(SCC(=O)N2CCc3ccccc3C2)nnc1-c1cccs1 | inconclusive: -23.5% | –
19 | CC1(C)CC(=O)C2=C(C1)OC(N)=C(C#N)C2C1CC=CCC1 (configuration not stated) | inactive | –
20 | O=C(CSc1nc2ncc(Br)cc2[nH]1)Nc1ccc2c(c1)OCO2 | inconclusive: 14.8% | –
21 | CC(=O)COc1cc(C)cc2oc(=O)c(C)c(C)c12 | inactive | –

Row | Structure (SMILES) | activity change, negative = inhibition | Potency
22 | c1ccc(Cn2nnc3c(N4CCCC4)ncnc32)cc1 | – | active: 10 µM
23 | COc1cc(N=C(N)N=C(N)N)c2ncccc2c1 | inactive: 3.01% [at 7.6 µM] | –
24 | COc1ccc2[nH]cc(CCNc3ncncc3-c3ccc(N(C)C)cc3)c2c1 | – | inconclusive: 20 µM [rising, single point]
25 | O=C(Nc1cccc(C(F)(F)F)c1)C1CCCN1S(=O)(=O)c1cccc2cccnc12 (configuration not stated) | inconclusive: -14.3% | –
26 | Oc1c([C@H](Nc2ccccn2)c2ccccc2)ccc2cccnc12 | inactive: 8.71% [at 7.6 µM] | –
27 | CCOC(=O)C1=C(C)Nc2ncnn2C1c1cc(OC)ccc1OC (configuration not stated) | – | inconclusive: 2 µM [rising, partial curve, poor fit]
28 | CC1Cc2ccccc2N1C(=O)C12CCC(C)(C(=O)C1)C2(C)C (configuration not stated) | inactive | –
29 | O=C(C1CC1c1ccccc1)N1CCOCC1 (configuration not stated) | inconclusive: 4.23% [at 7.6 µM] | –
30 | CN(C)CCCN1C(=O)C(=O)/C(=C(/O)c2ccc3c(c2)OCCO3)C1c1ccco1 (configuration not stated) | inconclusive: 4.34% | –
31 | CC(C)Cc1nnc(NC(=O)c2ccncc2)s1 | inconclusive: 4.7% | –
32 | c1ccc2c(-c3ccncc3)c[nH]c2c1 | inconclusive: -11.7% | –
33 | O=[N+]([O-])c1cccc(Cl)c1Cl | inactive | –
34 | COc1cc2c(C(=O)NCc3ccc4c(c3)OCO4)cn(CC(C)C)c(=O)c2cc1OC | – | inconclusive: 2 µM [rising, full curve]
35 | N#Cc1ccc(CN2CCC3(CCNCC3)CC2)cc1 | inactive | –
36 | COc1cccc(C2CC(c3ccccc3Cl)Nc3nc(N)nn32)c1 (configuration not stated) | inconclusive: 27.5% | –
37 | COc1cccc(C2=NOC(C(=O)N3CCOCC3)C2)c1 (configuration not stated) | – | inconclusive: 0.0251 µM [rising, full curve, poor fit]
38 | Cc1c(N=Cc2c(O)n(Cc3ccco3)c(=O)c3ccccc23)c(=O)n(-c2ccccc2)n1C | – | active: 3.16 µM
39 | N#Cc1c(NC(=O)Cn2cnc3ccccc3c2=O)oc(-c2ccccc2)c1-c1ccccc1 | – | inconclusive: 10 µM [rising, partial curve]
40 | COCCn1c(=O)c(-c2cccs2)nc2cnc(N3CCN(C)CC3)nc21 | – | inconclusive: 12.6 µM [rising, partial curve]
41 | O=C(Nc1ccc(N2CCN(C(=O)c3ccco3)CC2)c(Cl)c1)c1cc2ccccc2o1 | – | inconclusive: 3.16 µM [falling, full curve, poor fit]
42 | COc1ccc(Cn2nnnc2C(C(C)C)N2CCc3ccccc32)cc1 (configuration not stated) | inconclusive: 15.9% | –

Row | Structure (SMILES) | activity change, negative = inhibition | Potency
43 | COC(=O)C1=C(C)N(Cc2ccco2)C(=O)C1 | – | inconclusive: 0.126 µM [rising, full curve, poor fit]
44 | Cc1ccccc1C(N)=O | inactive | –
45 | COc1ccc(-c2noc(CSc3nc(N)c(-c4ccccc4)c(=O)[nH]3)n2)cc1OC | – | inconclusive: 20 µM [rising, single point]
46 | COC(=O)c1ccc2[nH]c(C)c(CN3CCCC3)c(=O)c2c1 | inactive | –
47 | CCn1c(C(C)NC(=O)c2ccc(OC)c(OC)c2)nc2ccccc21 (configuration not stated) | – | inconclusive: 10 µM [rising, partial curve]
48 | O=C(C(Cc1ccccc1)N1C(=O)C2C3C=CC(C3)C2C1=O)N1CCCCCC1 (configuration not stated) | inconclusive: 14.6% | –
49 | CCOc1cc(-c2noc(CCCC(N)=O)n2)cc(Br)c1OC | inconclusive: 11.8% | –
50 | C=C(C)C1CC=C(C)C(OC(C)=O)C1 (configuration not stated) | inactive | –
51 | Cc1nn(-c2ccccn2)c2c1-c1nc(N)ncc1CC2 | inactive | –
52 | COc1ccc(-c2nc3cnc(N4CCOCC4)nc3n(C[C@H]3CCCO3)c2=O)cc1 | – | inconclusive: 3.98 µM [rising, partial curve]
53 | COc1ccc(S(=O)(=O)Nc2ccc(C)cc2)cc1OC | – | inconclusive: 20 µM [rising, single point]
54 | CCN(CCCCN1C(=O)c2ccccc2C1=O)c1ccc2c(c1)C(=O)N(C)C2=O | – | inconclusive: 7.94 µM [rising, partial curve]
55 | NC(=O)c1c(NC(=O)CSc2nnc(-c3ccco3)n2-c2ccccc2)sc2c1CCC2 | – | inconclusive: 5.01 µM [rising, single point]
56 | Cc1ccc(S(=O)(=O)Oc2cc(S(=O)(=O)O)cc3cc(S(=O)(=O)O)cc(N)c23)cc1 | inactive: 6.43% [at 7.6 µM] | –
57 | COc1ccc(NC(=O)N2CCCC3(CCN(S(=O)(=O)c4ccccc4)CC3)C2)cc1 | inactive | –
58 | O=C(CSc1nnc(-c2ccncc2)n1Cc1ccco1)c1ccc(Cl)cc1 | inactive | –
59 | CCOC(=O)N1CCN(Cc2nc3c(c(=O)n(C)c(=O)n3C)n2CCCc2ccccc2)CC1 | inconclusive: 28.1% | –
60 | CCN1CCN(Cc2c(C)[nH]c3ccc(C(=O)OC)cc3c2=O)CC1 | – | inconclusive: 0.0631 µM [rising, full curve, poor fit]
61 | CCN(CC)CCCN1C(=O)C(O)=C(C(=O)c2cc3ccccc3o2)C1c1ccccn1 (configuration not stated) | inconclusive: 2.93% | –
62 | COc1cc(-c2ccccc2)nc(N)n1 | – | inconclusive: 2 µM [rising, single point]
63 | CCCC[C@H]1C[C@@H]1[C@@H]1N(P(=O)(c2ccccc2)c2ccccc2)C[C@@](O)(c2ccccc2)CC12CC2 | inactive | –

Row | Structure (SMILES) | activity change, negative = inhibition | Potency
64 | CN1C(=O)c2ccccc2C(C(=O)NCCCN2CCCC2)C1c1c[nH]c2ccccc12 (configuration not stated) | inconclusive: 6.75% | –
65 | COc1ccc(C(=O)Nc2ccc3oc(-c4cccc(F)c4)nc3c2)cc1OC | inactive | –
66 | CC1(C)C(=O)Nc2ccccc2N1C(=O)COC(=O)C12CC3CC(CC(O)(C3)C1)C2 | inconclusive: -12.5% | –
67 | COC(=O)[C@H](CCSC)NC(=O)N1CCN(c2cccc(C(F)(F)F)c2)CC1 | inconclusive: -10.9% | –
68 | COc1cc2c(cc1OC)CN(c1ccc(-c3ccccc3OC)nn1)CC2 | – | inconclusive: 20 µM [rising, single point]
69 | CC1(C)OC(=O)C(=CNC(Cc2c[nH]c3ccccc23)C(=O)O)C(=O)O1 (configuration not stated) | inconclusive: 3.31% | –
70 | O=C(c1nsc(Cl)c1Cl)N1CCCCC1 | inconclusive: -6.36% [at 7.6 µM] | –
71 | Cc1ccnc(-n2sc3ccccc3c2=O)n1 | – | inconclusive: 3.98 µM [falling, single point]
72 | CCC(C)(C)n1nnnc1C(c1ccccn1)N1CCOCC1 (configuration not stated) | inactive | –
73 | CC1CCCCN1C(=O)c1ccc(C(=O)N2CCCCC2C)cc1 (configuration not stated) | inconclusive: -4.17% [at 7.6 µM] | –
74 | COC(=O)Cn1cnc2c(C#N)c3n(c2c1=O)CCCCC3 | inactive | –
75 | COc1cccc(C2CC(c3ccccc3OC)n3nc(N)nc3N2)c1 (configuration not stated) | inactive | –
76 | COc1ccc(C(=O)Nc2cccc(C)c2)cc1 | inconclusive: 12.1% [at 7.6 µM] | –
77 | CC1(C)NC(=O)N(c2ccc([N+](=O)[O-])c(C(F)(F)F)c2)C1=O | inactive | –
78 | O=C(NCc1ccco1)c1ccc(CS(=O)(=O)Cc2ccc(Cl)cc2)o1 | inconclusive: -6.04% | –
79 | CCOC(=O)c1ccc(CNC(=O)c2n[nH]c(=O)c3ccccc23)o1 | – | inconclusive: 10 µM [rising, partial curve]
80 | O=c1oc2cc(Br)ccc2n1CSC1=NCCS1 | inconclusive: -25.9% | –
81 | COC(=O)[C@H](Cc1ccccc1)NC(=O)NCCc1ccc(S(N)(=O)=O)cc1 | inconclusive: -15.7% | –
82 | CCS(=O)(=O)N1CCC(C(=O)NCCc2ccc(OC)c(OC)c2)CC1 | inconclusive: -26.3% | –
